# Results from the supplement of paper PMC9334596.
# Several values for one entry are separate records, joined by “and”; a condition that tells them apart may be missing. Identical values can stand only once. Over roughly 5,300 compounds, “PER2::LUC luminescence relative to vehicle control” has its median near 0.96; the highest 2% begin near 1.3. The list shows a part of the results.
# Test system: mPer2Luc MEF
# Assay: PER2::LUC luminescence relative to vehicle control (fold of vehicle); higher = higher PER2::LUC reporter signal
# Details: 10 µM
# Summary of the method: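 The reported values are PER2::LUC luminescence as fold of vehicle control in mouse embryonic fibroblasts carrying the mPer2Luc reporter. Cells were seeded at ~3000 per well in 384-well plates in DMEM with 10% FBS at 37 °C and 5% CO2, and compounds were added at 10 μM 48 h later. ONE-Glo luminescence was read 24 h and 30 h after treatment.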
smiles,measurement,setting,value
CC(C)CC(NC(=O)C(Cc1ccccc1)NC(=O)CNC(=O)C(C)NC(=O)C(N)Cc1ccc(O)cc1)C(=O)O (stereo unspecified),PER2::LUC luminescence,time after treatment 24 h,1.03
same,PER2::LUC luminescence,time after treatment 30 h,0.904
OC[C@@H]1CCCN2CCCC[C@H]12,PER2::LUC luminescence,time after treatment 24 h,1
same,PER2::LUC luminescence,time after treatment 30 h,0.945
COc1cc(OC)c2c(c1)O[C@H](c1ccc(OC)c(OC)c1)[C@@H](O)C2,PER2::LUC luminescence,time after treatment 24 h,1.03
same,PER2::LUC luminescence,time after treatment 30 h,0.964
C=CC[C@]1(O)CC[C@H]2[C@@H]3CCC4=CC(=O)CCC4=C3C=C[C@@]21C,PER2::LUC luminescence,time after treatment 24 h,0.87
same,PER2::LUC luminescence,time after treatment 30 h,0.949
CC(Cc1ccc(O)cc1)NCC(O)c1cc(O)cc(O)c1 (stereo unspecified),PER2::LUC luminescence,time after treatment 24 h,1.02 and 0.816
same,PER2::LUC luminescence,time after treatment 30 h,0.984 and 1.04
C/C(=C\c1csc(C)n1)[C@@H]1C[C@@H]2O[C@]2(C)CCC[C@H](C)[C@H](O)[C@@H](C)C(=O)C(C)(C)[C@@H](O)CC(=O)O1,PER2::LUC luminescence,time after treatment 24 h,0.519
same,PER2::LUC luminescence,time after treatment 30 h,0.483
C=CCN=C=S,PER2::LUC luminescence,time after treatment 24 h,0.561
same,PER2::LUC luminescence,time after treatment 30 h,0.919
C=C[C@H]1CN2CC[C@H]1C[C@@H]2[C@@H](O)c1ccnc2ccccc12,PER2::LUC luminescence,time after treatment 24 h,1.01 and 0.754
same,PER2::LUC luminescence,time after treatment 30 h,1.06 and 1.03
Cn1cnc(CCN)c1,PER2::LUC luminescence,time after treatment 24 h,0.826
same,PER2::LUC luminescence,time after treatment 30 h,0.66
C1CCc2nnnn2CC1,PER2::LUC luminescence,time after treatment 24 h,1.08 and 1 and 0.978
same,PER2::LUC luminescence,time after treatment 30 h,1 and 1.02 and 0.951
CNCC(O)c1ccc(O)cc1 (racemic),PER2::LUC luminescence,time after treatment 24 h,0.891
same,PER2::LUC luminescence,time after treatment 30 h,0.939
Cc1ccccc1-n1c(Cn2cnc3c(N)ncnc32)nc2cccc(C)c2c1=O,PER2::LUC luminescence,time after treatment 24 h,1.08
same,PER2::LUC luminescence,time after treatment 30 h,0.983
CN(N=O)c1ccc(O)c(O)c1,PER2::LUC luminescence,time after treatment 24 h,0.808
same,PER2::LUC luminescence,time after treatment 30 h,0.976
C=CCN1CCC2(C)c3cc(O)ccc3CC1C2C (racemic),PER2::LUC luminescence,time after treatment 24 h,0.981
same,PER2::LUC luminescence,time after treatment 30 h,0.906
CCCN1CCC[C@@H]2Cc3nc(N)ncc3C[C@H]21,PER2::LUC luminescence,time after treatment 24 h,1.04 and 0.908
same,PER2::LUC luminescence,time after treatment 30 h,0.943 and 0.869
C[C@]12CC[C@@H](O)C[C@@H]1CC[C@@H]1[C@@H]2CC[C@]2(C)C(=O)CC[C@@H]12,PER2::LUC luminescence,time after treatment 24 h,0.936
same,PER2::LUC luminescence,time after treatment 30 h,0.913
COc1ccc2c(c1)[C@]13CCCC[C@@H]1[C@H](C2)N(C)CC3,PER2::LUC luminescence,time after treatment 24 h,0.702 and 0.654 and 0.636
same,PER2::LUC luminescence,time after treatment 30 h,0.83 and 0.727 and 0.743
CC1=NCCc2c1[nH]c1cc(O)ccc21,PER2::LUC luminescence,time after treatment 24 h,0.94
same,PER2::LUC luminescence,time after treatment 30 h,0.935
C=C[C@H]1CN2CC[C@H]1C[C@H]2[C@H](O)c1ccnc2ccccc12,PER2::LUC luminescence,time after treatment 24 h,0.985 and 0.929
same,PER2::LUC luminescence,time after treatment 30 h,0.986 and 1.01
Cc1cccc(C(C)c2c[nH]cn2)c1C (stereo unspecified),PER2::LUC luminescence,time after treatment 24 h,1.1
same,PER2::LUC luminescence,time after treatment 30 h,1.09
C[C@H]1O[C@@H](O[C@H]2[C@@H](O)C[C@H](O[C@H]3[C@@H](O)C[C@H](O[C@H]4CC[C@@]5(C)[C@H](CC[C@@H]6[C@@H]5CC[C@]5(C)[C@@H](C7=CC(=O)OC7)[C@@H](O)C[C@]65O)C4)O[C@@H]3C)O[C@@H]2C)C[C@H](O)[C@@H]1O,PER2::LUC luminescence,time after treatment 24 h,0.658
same,PER2::LUC luminescence,time after treatment 30 h,0.649
O=C1C=CC(=O)c2c(O)cccc21,PER2::LUC luminescence,time after treatment 24 h,0.933
same,PER2::LUC luminescence,time after treatment 30 h,0.779
CN(C(=O)Cc1ccc(Cl)c(Cl)c1)[C@H](CN1CCCC1)c1ccccc1,PER2::LUC luminescence,time after treatment 24 h,0.654
same,PER2::LUC luminescence,time after treatment 30 h,0.655
COC[C@H]1OC(=O)c2coc3c2[C@@]1(C)C1=C(C3=O)[C@@H]2CCC(=O)[C@@]2(C)C[C@H]1OC(C)=O,PER2::LUC luminescence,time after treatment 24 h,0.877
same,PER2::LUC luminescence,time after treatment 30 h,0.875
CNNC,PER2::LUC luminescence,time after treatment 24 h,0.952
same,PER2::LUC luminescence,time after treatment 30 h,0.931
Oc1cc2c(cc1O)[C@H]1c3ccccc3CN[C@@H]1CC2,PER2::LUC luminescence,time after treatment 24 h,0.855
same,PER2::LUC luminescence,time after treatment 30 h,0.8
Clc1cnc(Oc2ccc(Oc3ncc(Cl)cc3Cl)cc2)c(Cl)c1,PER2::LUC luminescence,time after treatment 24 h,1.07
same,PER2::LUC luminescence,time after treatment 30 h,1.01
CNCCc1ccc(O)c(O)c1,PER2::LUC luminescence,time after treatment 24 h,0.939
same,PER2::LUC luminescence,time after treatment 30 h,0.915
CC(C)[C@H](NC(=O)[C@H](CCC(=O)O)NC(=O)[C@H](Cc1ccccc1)NC(=O)[C@@H](C)NC(=O)[C@@H](N)Cc1ccc(O)cc1)C(=O)N[C@H](C(=O)NCC(N)=O)C(C)C,PER2::LUC luminescence,time after treatment 24 h,1.11
same,PER2::LUC luminescence,time after treatment 30 h,0.98
NC(N)=NOCC[C@H](N)C(=O)O,PER2::LUC luminescence,time after treatment 24 h,1.1 and 1.18
same,PER2::LUC luminescence,time after treatment 30 h,0.992 and 1.16
N[C@@H](Cn1oc(=O)[nH]c1=O)C(=O)O,PER2::LUC luminescence,time after treatment 24 h,0.982 and 0.881
same,PER2::LUC luminescence,time after treatment 30 h,0.97 and 0.793
O=S(=O)(CC1CS1)c1ccc(Oc2ccccc2)cc1 (stereo unspecified),PER2::LUC luminescence,time after treatment 24 h,1.19
same,PER2::LUC luminescence,time after treatment 30 h,1.04
C[C@H](Cc1ccc(OCC(=O)O)cc1)NC[C@H](O)c1cccc(Cl)c1,PER2::LUC luminescence,time after treatment 24 h,0.906
same,PER2::LUC luminescence,time after treatment 30 h,0.891
CN1[C@@H]2CCC[C@H]1CC(=O)C2,PER2::LUC luminescence,time after treatment 24 h,0.978
same,PER2::LUC luminescence,time after treatment 30 h,0.882
C[N+]1(CCC(C(N)=O)(c2ccccc2)c2ccccc2)CCCCC1,PER2::LUC luminescence,time after treatment 24 h,1.05
same,PER2::LUC luminescence,time after treatment 30 h,1.16
S=C(NC1CCCCC1)N1CCC(c2cnc[nH]2)CC1,PER2::LUC luminescence,time after treatment 24 h,0.954
same,PER2::LUC luminescence,time after treatment 30 h,0.996
CN1[C@@H]2CC(O)C[C@H]1[C@@H]1O[C@@H]12 (stereo partly specified),PER2::LUC luminescence,time after treatment 24 h,1.02 and 1.19
same,PER2::LUC luminescence,time after treatment 30 h,1.02 and 1.1
O=C([O-])Cc1ccccc1.[Na+],PER2::LUC luminescence,time after treatment 24 h,0.961
same,PER2::LUC luminescence,time after treatment 30 h,0.91
CCN(CC)C(=O)NC1CC2c3cccc4[nH]cc(c34)CC2N(C)C1 (stereo unspecified),PER2::LUC luminescence,time after treatment 24 h,0.846
same,PER2::LUC luminescence,time after treatment 30 h,0.986
C[C@]12CC[C@H]3[C@@H](CC[C@]4(O)C[C@@H](O)CC[C@]34C=O)[C@@]1(O)CC[C@@H]2C1=CC(=O)OC1,PER2::LUC luminescence,time after treatment 24 h,0.934
same,PER2::LUC luminescence,time after treatment 30 h,0.862
O=c1[nH]c2ccccc2n1CCCN1CCC(n2c(=O)[nH]c3cc(Cl)ccc32)CC1,PER2::LUC luminescence,time after treatment 24 h,0.941
same,PER2::LUC luminescence,time after treatment 30 h,0.864
O=C([O-])c1ccccc1-c1c2cc(Br)c(=O)cc-2oc2[c]([Hg+])c([O-])c(Br)cc12.[Na+].[Na+].[OH-],PER2::LUC luminescence,time after treatment 24 h,0.935
same,PER2::LUC luminescence,time after treatment 30 h,0.877
N#C/C(=C\c1cccc(O)c1)C(=O)O,PER2::LUC luminescence,time after treatment 24 h,0.973
same,PER2::LUC luminescence,time after treatment 30 h,0.923
COC(=O)C1=CO[C@@H](C)[C@H]2CN3CC[C@]4(C(=O)Nc5ccccc54)[C@@H]3C[C@H]12,PER2::LUC luminescence,time after treatment 24 h,0.938
same,PER2::LUC luminescence,time after treatment 30 h,0.896
CC(C)[N+](C)(CCC(C(N)=O)(c1ccccc1)c1ccccc1)C(C)C,PER2::LUC luminescence,time after treatment 24 h,0.541
same,PER2::LUC luminescence,time after treatment 30 h,0.804
CC(C)=CCCC1=CC(=O)c2c(O)ccc(O)c2C1=O,PER2::LUC luminescence,time after treatment 24 h,1.21
same,PER2::LUC luminescence,time after treatment 30 h,0.954
CC1=C[C@@H]2c3cccc4[nH]cc(c34)C[C@H]2N(C)C1,PER2::LUC luminescence,time after treatment 24 h,0.969
same,PER2::LUC luminescence,time after treatment 30 h,0.856
C#C[C@]1(O)CC[C@H]2[C@@H]3CCC4=CC(=O)CC[C@]4(C)[C@H]3CC[C@@]21C,PER2::LUC luminescence,time after treatment 24 h,0.91
same,PER2::LUC luminescence,time after treatment 30 h,1.09
C=CCN1CC[C@]23c4c5ccc(O)c4O[C@H]2/C(=N/NC(=O)c2ccccc2)CC[C@@]3(O)[C@H]1C5,PER2::LUC luminescence,time after treatment 24 h,1.13
same,PER2::LUC luminescence,time after treatment 30 h,0.994
CC(C)CC(N(C)C)C1(c2ccc(Cl)cc2)CCC1 (stereo unspecified),PER2::LUC luminescence,time after treatment 24 h,0.971 and 1.2
same,PER2::LUC luminescence,time after treatment 30 h,0.955 and 1.01
C[C@H]1CCC[C@@H](O)CCCCCc2cc(O)cc(O)c2C(=O)O1,PER2::LUC luminescence,time after treatment 24 h,0.9
same,PER2::LUC luminescence,time after treatment 30 h,0.909
COc1ccc2c3c1O[C@H]1CC(=O)C=C[C@@]31CCN(C)C2,PER2::LUC luminescence,time after treatment 24 h,1.03
same,PER2::LUC luminescence,time after treatment 30 h,0.993
NCC(CC(=O)O)c1ccc(Cl)s1 (racemic),PER2::LUC luminescence,time after treatment 24 h,1.04
same,PER2::LUC luminescence,time after treatment 30 h,0.985
COc1ccc2c(c1)c(CCN1CCOCC1)c(C)n2C(=O)c1cccc(Cl)c1Cl,PER2::LUC luminescence,time after treatment 24 h,1.08
same,PER2::LUC luminescence,time after treatment 30 h,1.02
Nc1ncn[nH]1,PER2::LUC luminescence,time after treatment 24 h,0.997
same,PER2::LUC luminescence,time after treatment 30 h,0.956
COc1ccc(CN2CCNCC2)c(OC)c1OC,PER2::LUC luminescence,time after treatment 24 h,1.01
same,PER2::LUC luminescence,time after treatment 30 h,0.903
c1ccc2c(N3CCNCC3)cccc2c1,PER2::LUC luminescence,time after treatment 24 h,0.719
same,PER2::LUC luminescence,time after treatment 30 h,0.663
CC[C@H]1CN2CC[C@H]1C[C@@H]2[C@@H](O)c1ccnc2ccc(OC)cc12,PER2::LUC luminescence,time after treatment 24 h,0.976
same,PER2::LUC luminescence,time after treatment 30 h,0.953
